Test results from paper PMC4336329 (PLoS ONE, 2015).
About 14,000 (4.5%) of roughly 310,000 compounds showed an effect of 50% or more. Effects have a minus sign here. Some of the results follow.

Each molecule was assayed against human ether-à-go-go-related gene (hERG) potassium channel (human, UniProt Q12809) (assay: primary screen, population patch clamp on CHO cells stably expressing hERG).
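Note: peak tail current of the secondary pulse compared with the same well before compound.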

human ether-à-go-go-related gene (hERG) potassium channel, sequence (Q12809 whole entry, looked up): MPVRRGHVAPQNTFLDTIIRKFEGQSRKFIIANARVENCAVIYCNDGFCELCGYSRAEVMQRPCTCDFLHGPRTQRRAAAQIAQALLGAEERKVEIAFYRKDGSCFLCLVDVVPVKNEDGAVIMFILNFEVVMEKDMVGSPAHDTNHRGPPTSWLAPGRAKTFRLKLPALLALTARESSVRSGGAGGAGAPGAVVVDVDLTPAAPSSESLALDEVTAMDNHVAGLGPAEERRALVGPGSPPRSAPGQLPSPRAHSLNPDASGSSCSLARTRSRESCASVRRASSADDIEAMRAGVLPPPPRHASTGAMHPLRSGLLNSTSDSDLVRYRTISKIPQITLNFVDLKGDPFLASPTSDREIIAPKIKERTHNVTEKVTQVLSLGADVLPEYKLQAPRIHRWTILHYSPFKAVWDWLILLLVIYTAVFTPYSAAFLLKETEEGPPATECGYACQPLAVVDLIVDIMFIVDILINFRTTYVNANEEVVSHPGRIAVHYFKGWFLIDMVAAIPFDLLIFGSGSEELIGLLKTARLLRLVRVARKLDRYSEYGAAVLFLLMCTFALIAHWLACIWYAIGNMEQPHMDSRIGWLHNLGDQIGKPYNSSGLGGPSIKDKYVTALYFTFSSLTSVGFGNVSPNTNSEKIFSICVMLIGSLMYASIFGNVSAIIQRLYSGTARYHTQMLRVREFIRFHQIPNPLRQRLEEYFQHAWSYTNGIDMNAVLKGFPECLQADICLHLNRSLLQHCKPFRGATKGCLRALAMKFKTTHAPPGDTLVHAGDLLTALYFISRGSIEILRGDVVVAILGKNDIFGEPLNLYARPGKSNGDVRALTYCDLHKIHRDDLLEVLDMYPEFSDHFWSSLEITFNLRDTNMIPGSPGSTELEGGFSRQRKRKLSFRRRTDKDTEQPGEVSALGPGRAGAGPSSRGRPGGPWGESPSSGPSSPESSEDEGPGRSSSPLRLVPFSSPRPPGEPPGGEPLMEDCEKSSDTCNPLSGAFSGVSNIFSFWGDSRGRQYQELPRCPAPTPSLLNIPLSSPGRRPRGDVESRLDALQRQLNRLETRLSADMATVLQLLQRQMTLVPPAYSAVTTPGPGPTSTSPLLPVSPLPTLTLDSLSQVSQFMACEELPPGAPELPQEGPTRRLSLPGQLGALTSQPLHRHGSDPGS

**Q.** With `CCOc1ccc(N(CC(=O)NCCc2ccc(Cl)cc2)S(=O)(=O)c2c(C)[nH]c(=O)[nH]c2=O)cc1` as the molecule, how does the “hERG current change (%, negative = inhibition) at 10uM” value read?
**A.** 50.2%

**Q.** Which “hERG current change (%, negative = inhibition) at 10uM” value does the source give for `COc1ccc(C(=O)N2CCN(c3ccc(C(C)=O)cc3F)CC2)cc1S(=O)(=O)NC1CC1` here?
**A.** -37.5%

**Q.** For `CCCOc1ccc(NC2=CC(=O)CC(C)(C)C2)cc1`, which “hERG current change (%, negative = inhibition) at 10uM” value is on record?
**A.** 1.89%

**Q.** Which “hERG current change (%, negative = inhibition) at 10uM” value does the source give for `COc1ccc(C2CC(C(F)(F)F)n3ncc(C(=O)O)c3N2)cc1OC` (centres unmarked) here?
**A.** -8.97%

**Q.** For `CC1CCN(S(=O)(=O)c2ccc3c(c2)c(=O)c(C(=O)N2CCCCC2)cn3C)CC1`, which “hERG current change (%, negative = inhibition) at 10uM” value is on record?
**A.** -14.7%

**Q.** How did the “hERG current change (%, negative = inhibition) at 10uM” value turn out when `CCc1cc(=O)oc2c(C)c(OC(C)C(=O)NC3CC(C)(C)NC(C)(C)C3)ccc12` (centres unmarked) was run?
**A.** 10.5%

**Q.** For `O=C(c1ccc(S(=O)(=O)N2CCCCCC2)cc1)N1CCCC(C(F)(F)F)C1` (centres unmarked), which “hERG current change (%, negative = inhibition) at 10uM” value is on record?
**A.** -1.72%

**Q.** With `O=C1CC(c2ccc(F)cc2)Cc2nc(NCC3CCCO3)ncc21` (centres unmarked) as the molecule, how does the “hERG current change (%, negative = inhibition) at 10uM” value read?
**A.** -20.2%

**Q.** `Cc1cccc(NC(=O)CNC(=O)CSc2nnc(C(F)(F)F)n2C)c1C` was tested. Which “hERG current change (%, negative = inhibition) at 10uM” value did it give?
**A.** 5.57%

**Q.** How did the “hERG current change (%, negative = inhibition) at 10uM” value turn out when `CCC(C)NC(=O)C1c2ccccc2C(=O)N1Cc1cc(OC)ccc1OC` (centres unmarked) was run?
**A.** 9.25%

**Q.** `Cc1[nH]n(-c2ccccc2)c(=O)c1C(=O)c1ccc([N+](=O)[O-])cc1` was tested. Which “hERG current change (%, negative = inhibition) at 10uM” value did it give?
**A.** 5.73%

**Q.** How did the “hERG current change (%, negative = inhibition) at 10uM” value turn out when `C[N+]1(C)CCC(=C2c3ccccc3CC(=O)c3sccc32)CC1.[I-]` was run?
**A.** -4.62%

**Q.** With `Cc1ccc(NC(=O)CSc2ncn[nH]2)cc1S(=O)(=O)N1CCOCC1` as the molecule, how does the “hERG current change (%, negative = inhibition) at 10uM” value read?
**A.** 13.4%

**Q.** Which “hERG current change (%, negative = inhibition) at 10uM” value does the source give for `CCOC(=O)c1ccoc1CSCC(=O)N1CCN(S(=O)(=O)c2ccc(C)cc2)CC1` here?
**A.** -25%

**Q.** With `COc1cccc(CNc2ncc(Br)cc2Br)c1O` as the molecule, how does the “hERG current change (%, negative = inhibition) at 10uM” value read?
**A.** 9.52%

**Q.** How did the “hERG current change (%, negative = inhibition) at 10uM” value turn out when `CCCCOCCCNCc1cccn1CCN1CCOCC1.O=C(O)C(=O)O` was run?
**A.** 9.07%

**Q.** With `CC(C)(O)c1ccc2c(c1)CCC1C(C)(C(=O)O)CCCC21C` (centres unmarked) as the molecule, how does the “hERG current change (%, negative = inhibition) at 10uM” value read?
**A.** 4.17%

**Q.** How did the “hERG current change (%, negative = inhibition) at 10uM” value turn out when `O=C1CC(c2nc3ccccc3[nH]2)CN1c1ccccc1F` (centres unmarked) was run?
**A.** -4.32%

**Q.** With `CS(=O)(=O)c1ccc(N2CCN(C3CC(=O)NC3=O)CC2)cc1` (centres unmarked) as the molecule, how does the “hERG current change (%, negative = inhibition) at 10uM” value read?
**A.** 13.1%

**Q.** For `CC(C)NC(C(=O)Nc1cc(Cl)cc(Cl)c1)c1ccccc1` (centres unmarked), which “hERG current change (%, negative = inhibition) at 10uM” value is on record?
**A.** -2.09%

**Q.** With `CCC1(c2ccc(F)cc2)NC(=O)N(CC(=O)N2CC(=O)Nc3ccccc32)C1=O` (centres unmarked) as the molecule, how does the “hERG current change (%, negative = inhibition) at 10uM” value read?
**A.** -5.52%

**Q.** For `CCCNC(=O)NNC(=O)c1cc(-c2ccc3c(c2)OCO3)nc2ccccc12`, which “hERG current change (%, negative = inhibition) at 10uM” value is on record?
**A.** 12.3%

**Q.** Which “hERG current change (%, negative = inhibition) at 10uM” value does the source give for `COc1ccccc1N1CCN(C(=O)c2ccc(N3CCCCS3(=O)=O)cc2)CC1` here?
**A.** 7.52%

**Q.** With `C=CCNCC(=O)Nc1sc2c(c1C(=O)Nc1ccc(OC)cc1OC)CCC2` as the molecule, how does the “hERG current change (%, negative = inhibition) at 10uM” value read?
**A.** 10.4%

**Q.** How did the “hERG current change (%, negative = inhibition) at 10uM” value turn out when `C=CCN1C(=O)C2C(C(=O)NCc3ccccc3)C3(C)C=CC2(O3)C1C(=O)NC(C)(C)C` (centres unmarked) was run?
**A.** 19.5%

**Q.** With `COc1ccc(C2c3c(ccc4ccccc34)Oc3ncn4nc(Cc5ccccc5)nc4c32)cc1OC` (centres unmarked) as the molecule, how does the “hERG current change (%, negative = inhibition) at 10uM” value read?
**A.** -7.49%

**Q.** Which “hERG current change (%, negative = inhibition) at 10uM” value does the source give for `COc1cc(/C=C2/SC(=S)N(CCC(=O)Nc3ccc(C(=O)O)cc3)C2=O)cc(OC)c1OC` here?
**A.** 25.1%

**Q.** With `CC1=CC(=O)c2c(O)ccc(O)c2C1=O` as the molecule, how does the “hERG current change (%, negative = inhibition) at 10uM” value read?
**A.** -42.6%

**Q.** How did the “hERG current change (%, negative = inhibition) at 10uM” value turn out when `COc1cc(OC)cc(C(=O)Nc2ncn[nH]2)c1` was run?
**A.** 7.31%

**Q.** With `Cc1cc(C)n(CCCNC(=O)c2ccc(S(=O)(=O)NCc3ccco3)cc2)n1` as the molecule, how does the “hERG current change (%, negative = inhibition) at 10uM” value read?
**A.** -0.172%

**Q.** With `CCc1nnc(NC(=O)c2cc(-c3cccnc3)nc3ccccc23)s1` as the molecule, how does the “hERG current change (%, negative = inhibition) at 10uM” value read?
**A.** 16.3%

**Q.** `O=C(Cc1cccs1)N/N=C/c1ccc(OCc2ccccc2)cc1` was tested. Which “hERG current change (%, negative = inhibition) at 10uM” value did it give?
**A.** 4.2%

**Q.** For `O=C(COC(=O)c1cc(=O)[nH]c2ccccc12)Nc1nc(-c2cccc(Br)c2)cs1`, which “hERG current change (%, negative = inhibition) at 10uM” value is on record?
**A.** -6.75%

**Q.** How did the “hERG current change (%, negative = inhibition) at 10uM” value turn out when `CCOc1ncccc1C(=O)OCC(=O)Nc1cccc(S(=O)(=O)N2CCCCCC2)c1` was run?
**A.** -38%

**Q.** With `O=C(C[C@H]1C(=O)N(C2CCCCC2)C[C@@H]1Cc1ccccc1)Nc1ccccc1` as the molecule, how does the “hERG current change (%, negative = inhibition) at 10uM” value read?
**A.** -27.4%

**Q.** `O=C(N/N=C/c1ccc2ncccc2c1)c1cc(-c2cccs2)nc2ccccc12` was tested. Which “hERG current change (%, negative = inhibition) at 10uM” value did it give?
**A.** 14.4%

**Q.** With `O=C(CO/N=C/c1ccccc1Cl)N1CCCc2ccccc21` as the molecule, how does the “hERG current change (%, negative = inhibition) at 10uM” value read?
**A.** -5.34%

**Q.** For `Cn1ccnc1C(=O)Cc1ccc([N+](=O)[O-])cc1`, which “hERG current change (%, negative = inhibition) at 10uM” value is on record?
**A.** -9.89%

**Q.** For `CN(C)Cc1c(O)ccc2occ(C(=O)c3ccc(F)cc3)c12`, which “hERG current change (%, negative = inhibition) at 10uM” value is on record?
**A.** -69.6%

**Q.** Which “hERG current change (%, negative = inhibition) at 10uM” value does the source give for `O=C(CSc1nnc(Cc2ccccc2)o1)Nc1ccccc1` here?
**A.** 9.47%

**Q.** Which “hERG current change (%, negative = inhibition) at 10uM” value does the source give for `CCC1CCCCN1S(=O)(=O)c1ccc(NC(=O)c2nc(S(C)(=O)=O)ncc2Cl)cc1` (centres unmarked) here?
**A.** 13.5%

**Q.** For `Cc1ccnc(NC(=O)Cc2ccc([N+](=O)[O-])cc2)c1`, which “hERG current change (%, negative = inhibition) at 10uM” value is on record?
**A.** -12.4%

**Q.** Which “hERG current change (%, negative = inhibition) at 10uM” value does the source give for `Cc1cc2nc(C3CCN(C(=S)NCCCOC(C)C)CC3)[nH]c2cc1C` here?
**A.** 13.7%

**Q.** `COC(=O)c1sc(C(C)(C)C)cc1CS(=O)(=O)c1ccc(Cl)cc1` was tested. Which “hERG current change (%, negative = inhibition) at 10uM” value did it give?
**A.** 7.17%

**Q.** Which “hERG current change (%, negative = inhibition) at 10uM” value does the source give for `Cc1cc(S(=O)(=O)NC(C)C)ccc1OCC(=O)N1CCN(Cc2ccc3c(c2)OCO3)CC1` here?
**A.** -27.6%

**Q.** Which “hERG current change (%, negative = inhibition) at 10uM” value does the source give for `Cc1ccc(C#N)c(SCCN2CCCCC2)n1` here?
**A.** -19.8%

**Q.** Which “hERG current change (%, negative = inhibition) at 10uM” value does the source give for `O=C(CN1c2ccccc2Sc2ccccc21)N/N=C/c1ccc(Cl)cc1Cl` here?
**A.** 25%

**Q.** Which “hERG current change (%, negative = inhibition) at 10uM” value does the source give for `CCC1CCCCN1CCCNC(=O)CN1C(=O)COc2ccc(S(=O)(=O)N3CCC(C)CC3)cc21` (centres unmarked) here?
**A.** -41.4%

**Q.** For `COc1cc(C2=NOC(C(=O)N3CCN(c4ccc(F)cc4)CC3)C2)cc(OC)c1OC` (centres unmarked), which “hERG current change (%, negative = inhibition) at 10uM” value is on record?
**A.** -43.6%

**Q.** How did the “hERG current change (%, negative = inhibition) at 10uM” value turn out when `Cc1ccc(S(=O)(=O)N2CCC(=O)N(C(COCc3cccc(Cl)c3)Cc3ccccc3)CC2)cc1` (centres unmarked) was run?
**A.** 7.67%

**Q.** With `Cn1c(SCc2ccccc2F)nnc1-c1ccccn1` as the molecule, how does the “hERG current change (%, negative = inhibition) at 10uM” value read?
**A.** -14.5%

**Q.** How did the “hERG current change (%, negative = inhibition) at 10uM” value turn out when `CCc1nc(SCC(=O)N2CCC(C)CC2)c2c(=O)n(C)c(=O)n(C)c2n1` was run?
**A.** -11.6%

**Q.** How did the “hERG current change (%, negative = inhibition) at 10uM” value turn out when `Oc1ccc2ccccc2c1CN1CC=C(c2ccccc2)CC1` was run?
**A.** 40.6%
